# The inconclusive results got no clear call from the source; some entries with a clear call stand among them for comparison. Where the call is inconclusive, the potency comes from a doubtful curve fit. Active and inactive are the calls of the source. Calls come from the whole dose curve; as a rule, active = well fitted cell-killing curve with a large enough effect; inconclusive = small, poorly fitted or top-dose-only effect, or effect the other way; inactive = no such curve, though single readings can be large or run the other way.
# Key:
# [1] = Viability qHTS for spleen associated tyrosine kinase inhibitor (SYKi) naive MV4-11 cells (AID 1963823); conditions: MV4-11 AML viability, CellTiter-Glo luminescence, 72 h; series mostly up to 45 µM; note: nearly all actives have a fitted effect of over 40% in size
# Summary of the method: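 Seeding of 500 SYKi-naive MV4-11 cells per well onto pre-dispensed compounds preceded a 72 hr incubation at 37 C. Luminescent CellTiter-Glo signal, read after 10 min at room temperature, reflected viable cells.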
# [2] = Viability qHTS for spleen associated tyrosine kinase inhibitor (SYKi) drug resistant MV4-11 cells (AID 1963824); note: nearly all actives have a fitted effect of over 35% in size
# Summary of the method: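 SYK-inhibitor-resistant MV4-11 AML cells were seeded at 500 per well onto compound and cultured 72 hours (37 °C, 5% CO2). CellTiter-Glo was then added, and after 10 min at room temperature, luminescence gave viability.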
# Potency is the fitted concentration of half-maximal effect; tags give direction and shape of the fitted curve.
SMILES,Potency [1],Potency [2]
CC(=O)Nc1ccc(S(=O)(=O)Nc2cc(C)on2)cc1,inactive,inactive
COc1cc(/C=C/C(=O)NCCn2c(C(F)(F)F)cc3ccccc32)cc(OC)c1OC,"inconclusive: 16.4 µM [cytotoxic, single point]","inconclusive: 16.4 µM [cytotoxic, partial curve]"
Cc1cccc(-c2[nH]c(Cc3cccc(C(N)=O)c3)nc2-c2ccc3nccnc3c2)n1,"inconclusive: 29.1 µM [cytotoxic, single point]","inconclusive: 23.1 µM [cytotoxic, single point]"
O=C(Nc1ccc(N(Cc2ccsc2)C(=O)Cn2nnc3ccccc32)cc1)C1CC1,"inconclusive: 16.4 µM [cytotoxic, single point]","inconclusive: 20.6 µM [cytotoxic, partial curve]"
Nc1ccc(S(=O)(=O)Nc2ccccc2)cc1,"inconclusive: 13.3 µM [cytotoxic, partial curve, poor fit]","inconclusive: 33.5 µM [cytotoxic, single point]"
Cc1cc(OCCN2CCOCC2)nn1-c1ccc2ccccc2c1,"inconclusive: 25.9 µM [cytotoxic, single point]","inconclusive: 18.4 µM [cytotoxic, partial curve]"
CC1=CCC2C(C)(CO)CCCC2(C)C1CC12OC1C(O)C(CO)=CC2O (configuration not stated),inactive,"inconclusive: 0.286 µM [cytotoxic, partial curve, poor fit]"
C=CC(C)(O)CC[C@H]1C(=C)CCC2[C@](C)(C(=O)O)CCC[C@@]21C (some centres not stated),inactive,"inconclusive: 4.53 µM [cytotoxic, partial curve, poor fit]"
CC1(C)CC[C@]2(C(=O)O)CC[C@]3(C)C(=CCC4[C@@]5(C)C[C@@H](O)[C@H](O)C(CO)(CO)C5CC[C@]43C)C2[C@@H]1O (some centres not stated),"inconclusive: 15.9 µM [cytotoxic, single point]","inconclusive: 5.02 µM [cytotoxic, partial curve]"
CC1=CC(=O)CC(C)(C)C1(O)CCC(C)O (configuration not stated),inactive,inactive
COC(=O)C1=COC(OC2OC(CO)C(O)C(O)C2O)C2C(C)C(OC(=O)/C=C/c3ccc(O)cc3)C(O)C12 (configuration not stated),inactive,inactive
C=C1C[C@]23C[C@H]1CC[C@H]2[C@]1(C)CC[C@H](O)[C@@](C)(C(=O)O)[C@H]1[C@@H]3C(=O)O,inactive,"inconclusive: 5.7 µM [cytotoxic, partial curve]"
CC[C@H](C)/C=C(C)/C=C/C(=O)Cc1cc(O)c(C)c(O)c1C=O,"inconclusive: 12.8 µM [cytotoxic, single point]","inconclusive: 20.2 µM [cytotoxic, single point]"
CCOC(=O)C(=O)CCCCCCl,inactive,inactive
Cc1c(-c2ccc3c(c2)OCO3)oc2ccc(C(O)C(C)O)cc12 (configuration not stated),"inconclusive: 7.18 µM [cytotoxic, partial curve]",active: 12.8 µM
C=CC(C)(O)CC/C=C(\C)COC1O[C@H](CO)[C@@H](O)[C@H](O)[C@H]1O (some centres not stated),inactive,inactive
CCS(=O)(=O)N1CCC(C(C)n2c(C)c(C(=O)NCc3c(OC)cc(C)[nH]c3=O)c3ccccc32)CC1 (configuration not stated),"inconclusive: 20.9 µM [cytotoxic, single point]","inconclusive: 13.2 µM [cytotoxic, partial curve]"
CCCCS(=O)(=O)Nc1ncnc(OCCOc2ncc(Br)cn2)c1-c1ccc(Br)cc1,"inconclusive: 20.6 µM [cytotoxic, single point]","inconclusive: 10.3 µM [cytotoxic, partial curve]"
C[C@H]1CC[C@@]2(OC1)O[C@H]1CC3C4CC[C@H]5C[C@@H](O[C@@H]6O[C@H](CO)[C@H](O[C@@H]7O[C@H](CO)[C@@H](O)[C@H](O[C@@H]8OC[C@@H](O)[C@H](O)[C@H]8O)[C@H]7O[C@@H]7O[C@H](CO)[C@@H](O)[C@H](O)[C@H]7O)[C@H](O)[C@H]6O)[C@H](O)C[C@]5(C)C4=CC(=O)[C@]3(C)[C@H]1[C@@H]2C (some centres not stated),"inconclusive: 6.93 µM [cytotoxic, single point]","inconclusive: 4.91 µM [cytotoxic, single point]"
CC1=C2[N-][C@H]([C@H](CC(N)=O)[C@@]2(C)CCC(=O)NC[C@@H](C)OP(=O)([O-])O[C@H]2[C@@H](O)[C@@H](n3cnc4cc(C)c(C)cc43)O[C@@H]2CO)[C@]2(C)N=C(C(C)=C3N=C(C=C4N=C1[C@@H](CCC(N)=O)C4(C)C)[C@@H](CCC(N)=O)[C@]3(C)CC(N)=O)[C@@H](CCC(N)=O)[C@]2(C)CC(N)=O.O.[Co+2],"inconclusive: 26.3 µM [cytotoxic, single point]","inconclusive: 18.6 µM [cytotoxic, partial curve, poor fit]"
COc1ccccc1NC(=O)OCC1CCN(C(=O)OC(C)(C)C)CC1,inactive,"inconclusive: 16.4 µM [cytotoxic, single point]"

SMILES,Potency [1],Potency [2]
O=C(Cc1ccccc1)Nc1nnc(CCSCCc2nnc(NC(=O)Cc3ccccc3)s2)s1,"inconclusive: 0.332 µM [cytotoxic, full curve]","inconclusive: 1.05 µM [cytotoxic, full curve]"
CCN(CC)c1ccc2c(O)c(C=Nc3ccc(CC(=O)O)c(-c4c5c(nc6ccccc46)CCC(C(=O)NN)C5)c3)c(=O)oc2c1 (configuration not stated),active: 2.59 µM,"inconclusive: 5.17 µM [cytotoxic, single point]"
COc1ccc(CCNCc2ccc(OCc3ccc(Cl)nc3)c(OC)c2)cc1OC,"inconclusive: 23.1 µM [cytotoxic, partial curve]","inconclusive: 18.4 µM [cytotoxic, single point]"
N#CC1(c2ccc(F)cc2)CCC(=O)CC1,inactive,"inconclusive: 6.68 µM [cytotoxic, partial curve, poor fit]"
C=C1C(=O)OC2/C=C(\C)CC3C=C(CC/C=C(\C)CCC12)C(=O)O3 (configuration not stated),"inconclusive: 3.21 µM [cytotoxic, full curve]","inconclusive: 1.43 µM [cytotoxic, full curve]"
C=C(C)C(=O)O[C@H]1C[C@@](C)(O)C(=O)CC(O)/C(C)=C\[C@H]2OC(=O)C(=C)[C@H]12 (some centres not stated),active: 1.61 µM,active: 2.02 µM
CCCNCCc1ccc(NS(=O)(=O)c2ccc(OC(F)(F)F)cc2)cc1,"inconclusive: 13 µM [cytotoxic, partial curve]","inconclusive: 29.1 µM [cytotoxic, single point]"
COc1cc(/C=C/C=O)cc(OC)c1O[C@@H]1O[C@H](CO)[C@@H](O)[C@H](O)[C@H]1O,inactive,inactive
CC(C)c1ccc2c(c1)[C@H](O)CC1[C@@](C)(C(=O)O)CCC[C@]21C (some centres not stated),"inconclusive: 14.3 µM [cytotoxic, partial curve, poor fit]","inconclusive: 12.8 µM [cytotoxic, partial curve]"
O=S(=O)(O)c1ccc(O)cc1,inactive,inactive
COCc1c(Cl)ccc2c1CC[C@H]2c1ncc[nH]1,inactive,inactive
COc1c(C)c(OCC=C(C)C)cc2c1C(=O)NC2=O,"inconclusive: 10.3 µM [cytotoxic, partial curve]","inconclusive: 16.4 µM [cytotoxic, partial curve, poor fit]"
COc1c(C)c(OCC=C(C)C)cc2c1COC2=O,"inconclusive: 16.4 µM [cytotoxic, single point]","inconclusive: 16.4 µM [cytotoxic, single point]"
O=C1C=CC(O)(/C=C/C(=O)OC[C@H]2O[C@@H](Oc3ccc(O)cc3)[C@H](O)[C@@H](O)[C@@H]2O)C=C1,"inconclusive: 11.2 µM [cytotoxic, single point]","inconclusive: 10 µM [cytotoxic, partial curve, poor fit]"
CC1CC(=O)C2=C(O1)OC1(C)CCC3C(C)(C)C=CC(=O)C3(C)C1C2 (configuration not stated),"inconclusive: 14.3 µM [cytotoxic, single point]","inconclusive: 0.404 µM [cytotoxic, partial curve, poor fit]"
Cc1cc(-c2cc(O)ccc2Cl)cc2nnc(Nc3ccc(OCCN4CCCC4)cc3)nc12,active: 1.84 µM,active: 1.84 µM
C=C1CCC2C(C)(COC3OC(COC(=O)CC(=O)O)C(O)C(O)C3O)CCCC2(C)C1CCC1=CCOC1=O (configuration not stated),"inconclusive: 8.93 µM [cytotoxic, partial curve]","inconclusive: 8.93 µM [cytotoxic, partial curve, poor fit]"
COc1c(N2CC3CCCNC3C2)c(F)cc2c(=O)c(C(=O)O)cn(C3CC3)c12 (configuration not stated),"inconclusive: 20.6 µM [cytotoxic, single point]","inconclusive: 18.4 µM [cytotoxic, partial curve, poor fit]"
CCNC(=O)CCC/C=C\C[C@@H]1[C@@H](/C=C/C(O)CCc2ccccc2)[C@@H](O)C[C@@H]1O (some centres not stated),"inconclusive: 2.59 µM [cytotoxic, full curve, poor fit]",active: 14.8 µM
Cc1ccc(CCCO)c(NCc2ccc3nc(NCCCN4CCOCC4)n(Cc4nc(C)ccc4O)c3c2)c1,"inconclusive: 9.2 µM [cytotoxic, partial curve]","inconclusive: 6.51 µM [cytotoxic, partial curve]"
